Among all 150,000 compounds or so, about 540 (0.36%) showed an effect of 50% or more. This is one part of the list.

This experiment deals with Plasmodium falciparum. Nature of the experiment: Primary screen in NF54 nanoGlo assay, in single point, at 2uM, 72h; a lower Z score goes with more inhibition. The following applies: timepoint 72 hour. Format: functional, Erythrocyte.
Take `COc1cccc(CN2CCC(F)(C(=O)NC3CC3)CC2)c1`: the “% Inhibition” value is given as -6% and the Z score is recorded as 0.83.
In the same order, the values of `Cc1ccc(CNc2c[nH]nc2C(F)(F)F)nc1` are 3% and -0.54.
Consider `Cc1nc(C[C@H]2CCCN(S(=O)(=O)c3cccnc3C#N)C2)no1`, for which the “% Inhibition” value was -1% and the Z score stood at 0.21.
With `CN(Cc1ccco1)C(=O)NC[C@H]1CCCO1`, the “% Inhibition” value is -7% and the Z score was 0.6.
As to `Nc1nc(NCc2cn3ccccc3n2)cc(C2CC(O)C2)n1` (centres undefined), the “% Inhibition” value is listed as 1% and the Z score is reported as -0.13.
Regarding `C[C@]1(C#N)CCCN(CCCCc2ccccc2)C1`, the “% Inhibition” value was -10% and the Z score is 1.27.
`COc1ccc(NC(=O)C[C@@H](C)CC(=O)NCc2ccc(F)cc2)c(OC)c1`: the “% Inhibition” value turned out to be 2% and the Z score is reported as -0.34.
In the case of `CN1CCC(O)(CCNC(=O)[C@H](O)c2ccc3ccccc3c2)CC1`, the “% Inhibition” value was determined as 3% and the Z score is -0.47.
On to `Cn1nccc1[C@@H]1CCCCN1C(=O)c1cccc(F)c1F`, for which the “% Inhibition” value was -3% and the Z score was 0.56.
For `COC(=O)[C@@H]1C[C@@H](O)CN1Cc1ccncc1Cl`, the “% Inhibition” value is -4% and the Z score came out at 0.5.
With `Cc1nnc(-c2ccccc2-c2ccc(S(C)(=O)=O)cc2)o1`, the “% Inhibition” value was -13% and the Z score is 1.78.
Take `FC(F)(F)c1ccc2sc(N3CCOC[C@H]3c3nc(-c4cccs4)no3)nc2c1`: the “% Inhibition” value is listed as -31% and the Z score worked out at 3.68.
With `O=C1NCCN1C(=O)N1CC[C@H](Oc2cccc3cccnc23)C1`, the “% Inhibition” value was -10% and the Z score worked out at 2.
As to `O[C@H]1[C@H](NCc2ccccc2Cl)[C@H]2CO[C@H](O2)[C@@H]1n1cc(Cl)cn1`, the “% Inhibition” value is given as 33% and the Z score is -3.78.
In the same order, the values of `CN(C)c1nc(N)nc(Cn2ccc(-c3cccs3)n2)n1` are -2% and 0.3.
In the same order, the values of `CN1CCO[C@H](C(=O)Nc2cc(C3CCCC3)nn2C)C1` are 0% and -0.03.
For `COc1ccc(C(=O)NC2CCC(O)(c3cccc(F)c3)CC2)nc1` (centres undefined), the “% Inhibition” value is -11% and the Z score came to 1.33.
As to `Cc1c(Cl)cccc1NC(=O)C1CN(S(C)(=O)=O)C1`, the “% Inhibition” value is on record as -14% and the Z score is 2.13.
As for `O=C(Nc1ccc(OC2CCCC2)c(Cl)c1)C(=O)N1CCC(O)CC1`, the “% Inhibition” value is 1% and the Z score is listed as -0.06.
With `O=C(c1ccccc1)[C@@H]1[C@@H]2C(=O)N(c3cccc(F)c3)C(=O)[C@@H]2C2CCCN21` (some centres undefined), the “% Inhibition” value is listed as 7% and the Z score was -0.86.
Regarding `CCCCNC(=O)CN(C)[C@@H](C(=O)O)c1ccc(F)c(C)c1`, the “% Inhibition” value worked out at 12% and the Z score is on record as -1.62.
`Cc1[nH]nc(C(=O)N2CCC(C(=O)c3c(F)cc(F)cc3F)CC2)c1C`: the “% Inhibition” value was -3% and the Z score amounted to 0.63.
Regarding `O=S(=O)(NCCCn1ccc2cccnc21)C1CC1`, the “% Inhibition” value is listed as -8% and the Z score came to 1.19.
In the same order, the values of `O=C(CCc1cn[nH]c1)N1CCC[C@H](OCc2ccccc2)C1` are -1% and 0.13.
In the same order, the values of `CN=C(NCc1cnc(C)s1)NC1CCC(C)CC1` (centres undefined) are -1% and 0.13.
In the same order, the values of `CC(=O)N1CC[C@H](c2nc(CCOc3ccc(F)cc3)no2)C1` are -11% and 1.49.
Take `CCc1noc(CC)c1CN[C@@H](C)C1CC1`: the “% Inhibition” value is on record as -10% and the Z score is reported as 1.48.
As for `Cc1cc(N2CC(OCc3ccccc3)C2)nc(Nc2cccc(O)c2)n1`, the “% Inhibition” value came out at 91% and the Z score is given as -12.9.
Regarding `O=C(O)c1cccc(N2CCO[C@H](c3ccc(Cl)cc3)C2)n1`, the “% Inhibition” value was -1% and the Z score amounted to 0.23.
As to `CC1CCN(c2nnc(-c3nc(C4CC4)no3)c3ccccc23)CC1`, the “% Inhibition” value is listed as -16% and the Z score was determined as 2.53.
As to `COCc1nc(C)nc(N2CCN(C(=O)N(C)C)CC2)c1Cc1cccc(OC)c1`, the “% Inhibition” value is -10% and the Z score worked out at 1.81.
On to `O=C(CC[C@@H]1N=C(O)N(c2ccccc2)C1=O)NCCc1c[nH]c2ccccc12`, for which the “% Inhibition” value was -4% and the Z score is 0.52.
In the same order, the values of `COCC1(NC(=O)c2cnc(C)c(C)c2)CCCC1` are -19% and 1.81.
In the same order, the values of `C[C@@H](CCNC(=O)CC1CCN(S(=O)(=O)c2ccccc2)CC1)N1CCCC1` are -5% and 0.93.
Regarding `O=C(NCCNCc1ccc(Cl)cc1)c1ccncc1`, the “% Inhibition” value stood at 0% and the Z score is recorded as 0.03.
`CC(C)C(=O)NCCc1noc(Cc2ccccc2)n1`: the “% Inhibition” value is -7% and the Z score is recorded as 0.87.
Turning to `C=CCC(C(=O)NC1CC[C@@H](O)[C@@H](O)C1)c1ccccc1` (some centres undefined), the “% Inhibition” value is recorded as -16% and the Z score is given as 1.98.
`Cc1ccccc1N1CCN(S(=O)(=O)c2cc(-c3nc(C)c(C)s3)cs2)CC1`: the “% Inhibition” value stood at 1% and the Z score is recorded as -0.16.
Take `Cc1cc(Br)cc(C(=O)N[C@@H](C)c2nc[nH]n2)c1`: the “% Inhibition” value stood at 32% and the Z score is given as -3.64.
As to `C#Cc1cccc(N(Cc2ccco2)Cc2cc(=O)n(C)c(=O)n2C)c1`, the “% Inhibition” value is reported as 9% and the Z score is -1.43.
On to `CCn1cc(C#N)c(=O)n(CC(=O)N2CCN(c3cccc(C(F)(F)F)c3)CC2)c1=O`, for which the “% Inhibition” value is on record as -9% and the Z score was determined as 0.94.
In the same order, the values of `CCCCN(C)C(=O)Cn1cccc(S(=O)(=O)N2CCC(C)CC2)c1=O` are -4% and 0.6.

A word on the % Inhibition: it is the change of the read-out against control, counted positive when it falls.
